# The list shows a part of the results. The energies were worked out here from pooled read counts, against the library average; single values are noisy.
# Target: T1, Pho4 (S. cerevisiae) (UniProt P07270)
# T1 sequence: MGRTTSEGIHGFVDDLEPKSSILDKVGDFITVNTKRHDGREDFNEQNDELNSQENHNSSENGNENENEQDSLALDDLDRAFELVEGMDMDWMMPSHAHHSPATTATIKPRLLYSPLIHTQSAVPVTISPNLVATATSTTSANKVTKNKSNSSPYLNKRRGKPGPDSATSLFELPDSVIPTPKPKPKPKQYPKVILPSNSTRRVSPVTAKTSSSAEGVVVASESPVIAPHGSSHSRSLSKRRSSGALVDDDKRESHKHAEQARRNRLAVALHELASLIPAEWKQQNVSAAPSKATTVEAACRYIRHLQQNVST
# Experiment: relative binding free energy (BET-seq); higher = weaker binding
# Conditions: reference: library average
row,Sequence,relative binding free energy
1,AAGTTCACGTGATTTG,0.29 kcal/mol
2,GTGATCACGTGGAGCG,0.23 kcal/mol
3,CCGGGCACGTGGTTTG,-0.23 kcal/mol
4,AGGGACACGTGGGAAT,-0.04 kcal/mol
5,TAGCTCACGTGAGGGG,0.23 kcal/mol
6,AGTGGCACGTGCGTAT,-0.17 kcal/mol
7,TGTCGCACGTGTCGTG,-0.17 kcal/mol
8,TTCGACACGTGTGTGA,0.17 kcal/mol
9,TAGGTCACGTGGCTGG,-0.02 kcal/mol
10,TGTTGCACGTGGGACA,-0.02 kcal/mol
11,TTTTGCACGTGTTGGA,0.16 kcal/mol
12,CCGGGCACGTGGTTAG,-0.17 kcal/mol
13,CGCTTCACGTGTGGTG,0.14 kcal/mol
14,AGTATCACGTGGGAGG,0.05 kcal/mol
15,TTTTACACGTGTAGGC,0.13 kcal/mol
16,TGTTTCACGTGGCTTA,0.23 kcal/mol
17,TCGCGCACGTGATGGT,0.05 kcal/mol
18,GTTTCCACGTGCGGTT,0.15 kcal/mol
19,ATTATCACGTGCAGGT,-0.01 kcal/mol
20,GGGTGCACGTGGGCCG,-0.08 kcal/mol
21,AGCTACACGTGGTGGT,0.03 kcal/mol
22,TTAAACACGTGATATT,0.24 kcal/mol
23,ATGTGCACGTGCTGAT,-0.13 kcal/mol

row,Sequence,relative binding free energy
1,GAGGGCACGTGGGCTA,-0.23 kcal/mol
2,GGGGTCACGTGTTGCC,0.15 kcal/mol
3,TGGTGCACGTGGGCTG,-0.17 kcal/mol
4,TATGCCACGTGTGTGT,-0.14 kcal/mol
5,GCTGTCACGTGAGATT,0.4 kcal/mol
6,TGTGACACGTGGTTCT,-0.18 kcal/mol
7,GGGGACACGTGGTCTT,0.04 kcal/mol
8,ATGGACACGTGTAAGG,0.16 kcal/mol
9,AACGTCACGTGATGTG,0.13 kcal/mol
10,TTGGCCACGTGAGCGT,0.14 kcal/mol
11,GATACCACGTGGGTGT,-0.26 kcal/mol
12,GGGGTCACGTGGGTCT,0.17 kcal/mol
13,AATAACACGTGTTGAT,-0.11 kcal/mol
14,ATTGGCACGTGATGCT,-0.15 kcal/mol
15,TTGCTCACGTGGTTTG,0.11 kcal/mol
16,GAAGTCACGTGTGTGA,0.12 kcal/mol
17,GGCGCCACGTGTGGGT,0.03 kcal/mol
18,TGGAACACGTGGTCGG,0.04 kcal/mol
19,TCTTGCACGTGCTGTA,-0.06 kcal/mol
20,TTAGGCACGTGCGAAG,-0.09 kcal/mol
21,GGACTCACGTGGATTG,0.36 kcal/mol
22,TAGTGCACGTGGCTAT,-0.14 kcal/mol
23,TAGTTCACGTGAGTTG,0.44 kcal/mol

row,Sequence,relative binding free energy
1,ATTAGCACGTGTGCAG,-0.12 kcal/mol
2,CTAGGCACGTGATTTG,-0.11 kcal/mol
3,ACGCACACGTGGGGGG,-0.29 kcal/mol
4,AGATGCACGTGATGGG,0.05 kcal/mol
5,GGCGCCACGTGTTGGT,-0.09 kcal/mol
6,CTATTCACGTGAAGTT,0.29 kcal/mol
7,ATTTTCACGTGTAAGG,0.23 kcal/mol
8,TAGAGCACGTGTGTTT,-0.06 kcal/mol
9,CATTGCACGTGTGGGG,0.05 kcal/mol
10,AAGAGCACGTGTTTTT,-0.11 kcal/mol
11,GTGTTCACGTGACGTT,0.23 kcal/mol
12,GTTGGCACGTGTCTCG,-0.07 kcal/mol
13,TGATACACGTGAAGTA,0.22 kcal/mol
14,TGGGTCACGTGAGGTC,0.28 kcal/mol
15,AATTGCACGTGTGACA,0.19 kcal/mol
16,GGAGTCACGTGGAAGA,0.19 kcal/mol
17,TGATACACGTGTGGGA,0.16 kcal/mol
18,TATTTCACGTGGGTCT,0.21 kcal/mol
19,CTAAACACGTGGTGGG,-0.12 kcal/mol
20,CTATACACGTGTTTAT,0.09 kcal/mol
21,TGTTTCACGTGTTGGG,0.33 kcal/mol
22,TGCTCCACGTGGTGGG,-0.12 kcal/mol
23,AGGGACACGTGGTACG,-0.18 kcal/mol

row,Sequence,relative binding free energy
1,CGTGACACGTGTGGTA,-0.04 kcal/mol
2,GGCATCACGTGATTGT,0.27 kcal/mol
3,TCAATCACGTGGTGGG,0.16 kcal/mol
4,ATCATCACGTGGGTTT,-0.08 kcal/mol
5,TGATGCACGTGGTGCA,-0.11 kcal/mol
6,CGATTCACGTGAGTGG,0.28 kcal/mol
7,CGGTTCACGTGGTTTT,0.34 kcal/mol
8,GGGTTCACGTGTTGCG,0.28 kcal/mol
9,TGTCGCACGTGGCGTT,-0.24 kcal/mol
10,CGGGACACGTGATTGT,0.14 kcal/mol
11,ACTAGCACGTGGTGTT,-0.1 kcal/mol
12,AATATCACGTGTGTTT,0.04 kcal/mol
13,ATGTGCACGTGAGAGT,0.23 kcal/mol
14,AGTTGCACGTGATGGT,0.17 kcal/mol
15,TTGCGCACGTGGTTGG,-0.11 kcal/mol
16,GAAATCACGTGGTAGT,0.2 kcal/mol
17,TGGGCCACGTGGCGGC,-0.17 kcal/mol
18,TTTAACACGTGGAGTA,0.1 kcal/mol
19,ATGAACACGTGGTGTA,-0.15 kcal/mol
20,AGTGTCACGTGAGGAC,0.26 kcal/mol
21,AGATCCACGTGATGGT,0.12 kcal/mol
22,TGGCACACGTGCGTGG,-0.12 kcal/mol
23,CGTGTCACGTGGTAAT,0.16 kcal/mol

row,Sequence,relative binding free energy
1,ATTGGCACGTGATCTT,-0.09 kcal/mol
2,ATAATCACGTGAGGGT,0.46 kcal/mol
3,GGGGACACGTGGTTGG,0.12 kcal/mol
4,GGAGGCACGTGTATTT,0.05 kcal/mol
5,TGGCGCACGTGCTTTA,-0.09 kcal/mol
6,GGAGGCACGTGAGTCG,0.14 kcal/mol
7,GGGATCACGTGGAGTC,0.15 kcal/mol
8,CTATACACGTGAGGGG,0.22 kcal/mol
9,GGATTCACGTGGGGGA,0.32 kcal/mol
10,ATACGCACGTGGTGTG,-0.35 kcal/mol
11,ATGGGCACGTGAACTG,0.1 kcal/mol
12,CGGGTCACGTGGCCGG,0.11 kcal/mol
13,CGGTCCACGTGGGTGG,-0.24 kcal/mol
14,TTAGGCACGTGCTATT,-0.04 kcal/mol
15,GTAAACACGTGGTGTT,-0.11 kcal/mol
16,TTATACACGTGACGTT,0.06 kcal/mol
17,TGTTTCACGTGCTTAG,0.2 kcal/mol
18,AGGTACACGTGCGTTT,0 kcal/mol
19,TACGGCACGTGTTGGT,-0.01 kcal/mol
20,CGGTTCACGTGGGTGT,0.16 kcal/mol
21,GGGGGCACGTGTTGAG,0 kcal/mol
22,GGGGACACGTGGATGT,0.07 kcal/mol
23,AGTGGCACGTGGGCAA,-0.25 kcal/mol

# From the BET-seq Pho4 binding data (Le et al. 2018)
